Test results from PubChem BioAssay AID1460 (National Center for Advancing Translational Sciences (NCATS), 2008).
The whole screen tested about 270,000 compounds, of which about 5,800 (2.1%) were called active. The shares of active, inactive and inconclusive entries below differ from those in the screen. Calls come from the whole dose curve; as a rule, active = well fitted inhibition curve with a large enough effect; inconclusive = small, poorly fitted or top-dose-only effect; inactive = flat fitted curve, though single readings scatter. A potency beside an inconclusive call is a rough fit, not a confirmed value.

Biological target: Microtubule-associated protein tau (Homo sapiens) (UniProt P10636)
Test: qHTS for Inhibitors of Tau Fibril Formation, Thioflavin T Binding; note: nearly all actives have a fitted effect of over 55% in size
Details: recombinant tau K18 P301L, heparin-induced fibrillization, ThT fluorescence; series mostly up to 57.4 µM; activity, negative = inhibition: at the top concentration
How it was run: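 Using a mix of unlabeled (15 uM) and Alexa 594-labeled (0.24 uM) tau K18 P301L, heparin-triggered fibrillization over 6 hr at 37 C was scored by ThT fluorescence.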
% is set by controls: 0 for no effect and ±100 for the full control effect; potency is the fitted concentration of half-maximal effect; tags give direction and shape of the fitted curve.

UniProt P10636, sequence (P10636 whole entry, looked up): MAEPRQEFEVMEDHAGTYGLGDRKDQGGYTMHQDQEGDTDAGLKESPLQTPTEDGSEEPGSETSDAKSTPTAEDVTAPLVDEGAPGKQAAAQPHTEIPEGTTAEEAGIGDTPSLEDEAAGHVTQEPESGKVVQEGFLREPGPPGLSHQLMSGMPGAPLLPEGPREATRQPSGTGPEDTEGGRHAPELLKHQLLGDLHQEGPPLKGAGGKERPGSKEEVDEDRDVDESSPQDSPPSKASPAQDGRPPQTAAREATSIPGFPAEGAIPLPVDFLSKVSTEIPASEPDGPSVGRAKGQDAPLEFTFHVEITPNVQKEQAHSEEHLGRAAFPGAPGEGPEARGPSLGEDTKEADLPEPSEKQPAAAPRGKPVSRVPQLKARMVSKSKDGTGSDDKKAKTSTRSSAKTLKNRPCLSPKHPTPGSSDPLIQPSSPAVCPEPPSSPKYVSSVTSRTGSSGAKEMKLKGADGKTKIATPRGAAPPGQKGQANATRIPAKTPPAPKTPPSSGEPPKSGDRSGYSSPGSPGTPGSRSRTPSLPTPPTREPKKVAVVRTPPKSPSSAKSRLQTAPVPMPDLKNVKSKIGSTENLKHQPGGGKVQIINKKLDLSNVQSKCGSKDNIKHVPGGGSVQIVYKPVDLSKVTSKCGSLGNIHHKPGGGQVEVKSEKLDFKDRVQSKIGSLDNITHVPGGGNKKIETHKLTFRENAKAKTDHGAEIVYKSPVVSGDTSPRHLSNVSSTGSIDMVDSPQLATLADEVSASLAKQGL

| SMILES | Potency | activity, negative = inhibition |
| --- | --- | --- |
| COc1ccc(-c2noc(CCC(=O)N3CCN(Cc4ccccc4)CC3)n2)cc1 | inconclusive: 20 µM [inhibitor, partial curve] | – |
| CCC(=O)Nc1ccc2nc(SCCOc3ccc(C)cc3OC)sc2c1 | inconclusive: 0.891 µM [inhibitor, full curve, poor fit] | – |
| COc1ccc2c(c1)CCc1sc(NC(=O)c3cccc(Br)c3)nc1-2 | inconclusive: 2.82 µM [inhibitor, full curve] | – |
| C#Cc1ccc([C@@H]2C=C(C(=O)NCc3ccccc3)O[C@H](OCc3ccc(CO)cc3)C2)cc1 | inconclusive: 8.91 µM [inhibitor, single point] | – |
| O=C(NNC(=O)c1ccccc1C(=O)O)c1ccc(-c2ccccc2)cc1 | inconclusive: 10 µM [inhibitor, partial curve] | – |
| c1ccc(Nc2cccc(Nc3ccccc3)n2)cc1 | active: 14.1 µM | – |
| CC(C)CN1C=C2C(=O)C(C)(OC(=O)C3CCCC3)C(=O)C=C2C=C1c1ccsc1 (stereo unspecified) | inconclusive: 28.2 µM [inhibitor, partial curve] | inactive: -10.3% [at 11.5 µM] |
| Oc1ccc(/C=N/Nc2ncc(Br)cn2)c(O)c1 | inconclusive: 12.6 µM [inhibitor, partial curve] | – |
| CC(C)NC(=O)c1nn2c(C(F)(F)F)cc(-c3ccco3)nc2c1Cl | – | inactive: -5.22% |
| CCOc1ccc(CNC(=O)C2CCN(c3nnc(-n4c(C)ccc4C)s3)CC2)cc1 | inconclusive: 25.1 µM [inhibitor, partial curve] | – |
| O=C(NC1CCCCC1)C1CCC(CNS(=O)(=O)c2cccc3nsnc23)CC1 (stereo unspecified) | – | inactive: -5.56% |
| CCOC(=O)c1ccc(NC(=O)c2ccc(CN3CCOCC3)cc2)cc1 | inconclusive: 11.2 µM [inhibitor, partial curve] | – |
| CCOc1ccc(-c2nnc(SCC(=O)NCc3ccccc3Cl)o2)cc1 | – | inactive: -0.786% |
| O=C(c1ccc2nc(N3CCCCC3)sc2c1)N1CCN(Cc2ccc3c(c2)OCO3)CC1 | inconclusive: 2.82 µM [inhibitor, partial curve, poor fit] | – |
| O=C(CSc1cn(CC(=O)N2CCCCC2)c2ccccc12)NCc1ccccc1 | – | inactive: -12.1% |
| COCc1cc(C)nc2c1C(=O)NC(c1ccc(C)cc1)N2Cc1ccccc1 (stereo unspecified) | – | inactive: 3.89% |
| CC(=Nc1ccccc1)C1=C(O)CSC1=O | inconclusive: 31.6 µM [inhibitor, partial curve] | – |
| C#CCCCO/N=C1/C[C@@H](O)[C@@H](O)[C@@H]2[C@@H]3C(=O)N(c4cccc(Oc5ccccc5)c4)C(=O)[C@H]3CC[C@@H]12 | – | inactive: -1.95% [at 11.5 µM] |
| Cc1ccc(C)c(OCC(=O)N/N=C/c2c(C)nn(-c3ccccc3)c2Cl)c1 | inconclusive: 12.6 µM [inhibitor, partial curve] | – |
| Cc1ccccc1Nc1nn2c(=O)c3ccc(C(=O)NCc4ccccc4)cc3nc2s1 | inconclusive: 8.91 µM [inhibitor, single point] | – |
| COC(=O)c1ccc(NC(=O)Nc2ccc(F)c(Cl)c2)cc1 | inconclusive: 20 µM [activator, partial curve] | – |
| COc1cccc(OC(=O)c2cc3ccccc3oc2=O)c1 | inconclusive: 17.8 µM [inhibitor, partial curve, poor fit] | – |

| SMILES | Potency | activity, negative = inhibition |
| --- | --- | --- |
| COc1ccccc1-c1nnc(C2CCN(C(=O)c3cccc(C)c3)CC2)o1 | – | inactive: -10.4% |
| CSC1=NC(C)(C)C=C(/C=C/c2ccc(Cl)cc2)N1 | inconclusive: 11.2 µM [inhibitor, partial curve, poor fit] | – |
| C/C(=N\NC(=O)c1nn(C)c(C)c1Br)c1ccc(NC(=O)c2ccoc2C)cc1 | inconclusive: 0.794 µM [inhibitor, single point] | – |
| CCc1ccc(NC(=O)Cn2c(=O)n(CCCCC(=O)NCc3ccccc3Cl)c(=O)c3ccccc32)cc1 | – | inactive: -9.76% |
| Cc1ccc(-c2onc(C)c2C)cc1S(=O)(=O)NCc1ccc(N(C)C)cc1 | – | inactive: -5.41% |
| COc1ccc(-c2ccc(Nc3ccc(C(=O)N4CCOCC4)cc3)nn2)cc1OC | inconclusive: 14.1 µM [inhibitor, partial curve] | – |
| Cc1ccc(-n2c(C)cc(/C=N/NC(=O)Cn3c4ccccc4c(=O)c4ccccc43)c2C)cc1 | inconclusive: 15.8 µM [inhibitor, partial curve] | – |
| CCOC(=O)N1CCN(C(=O)C2CCN(c3ncnc4c3sc3cccc(F)c34)CC2)CC1 | inconclusive: 15.8 µM [inhibitor, partial curve] | – |
| C=CCn1c(CCSCc2ccc(OC)c(C)c2)n[nH]c1=S | – | inactive: -8.83% |
| COC(=O)C1=C(C)N(c2ccccc2)/C(=C/c2ccco2)C1=O | inconclusive: 22.4 µM [inhibitor, partial curve, poor fit] | – |
| CCCCCCCC1=CC2=C(Cl)C(=O)C(C)(OC(C)=O)C(=O)C2=CN1C (stereo unspecified) | inconclusive: 31.6 µM [inhibitor, partial curve] | – |
| Cc1cc(C)c(S(=O)(=O)NCC(c2ccco2)N2CCOCC2)c(C)c1 (stereo unspecified) | – | inactive: -0.734% |
| Cc1ccc(N=Nc2c(O)[nH]c3ccc(F)cc23)cc1 | inconclusive: 1.58 µM [inhibitor, full curve] | – |
| CC1CN(C(=O)c2ccc(COc3ccc4ccccc4c3)o2)CC(C)O1 (stereo unspecified) | inconclusive: 39.8 µM [inhibitor, single point] | – |
| Cc1ccc(CCNC(=O)c2ccc3[nH]c(C)c(C)c3c2)cc1 | inconclusive: 14.1 µM [inhibitor, partial curve] | – |
| O=[N+]([O-])c1ccc(NNC(=S)Nc2ccccc2)cc1 | inconclusive: 12.6 µM [inhibitor, partial curve] | – |
| Nc1nc2c(s1)CCc1c-2cnn1-c1ccccc1 | inconclusive: 35.5 µM [inhibitor, single point] | – |
| CCCCN(CCCC)c1nc(-c2ccncc2)nc2ccccc12 | inconclusive: 39.8 µM [inhibitor, single point] | – |
| COc1ccc(S(=O)(=O)n2nc(OC(=O)c3ccccc3)cc2N)cc1 | inconclusive: 10 µM [inhibitor, partial curve] | – |
| CC(=O)C1=C(c2ccccc2)N(C(C)=O)n2c(nnc2C2CCCCC2)S1 | inconclusive: 10 µM [inhibitor, partial curve, poor fit] | – |
| C/C(=N\OC(=O)c1ccccc1)c1c(C)nc2cc(C)ccn12 | inconclusive: 44.7 µM [inhibitor, single point] | – |
| CC1CCc2cc(F)ccc2N1C(=O)c1cc2nc(-c3ccco3)cc(C(F)(F)F)n2n1 (stereo unspecified) | – | inactive: -17.7% |

| SMILES | Potency | activity, negative = inhibition |
| --- | --- | --- |
| O=C(NCCN1CCN(c2cccc(Cl)c2)CC1)c1ccc(CSc2nc3ccncc3[nH]2)cc1 | inconclusive: 0.316 µM [inhibitor, full curve, poor fit] | – |
| Cc1cccc(NC(=O)CN2C(=O)C(c3ccccc3)=NC23CCC(C)CC3)c1 (stereo unspecified) | – | inactive: -6.09% |
| O=C(COC(=O)C12CC3CC(CC(C3)C1)C2)Nc1ccc([N+](=O)[O-])cc1Cl | inconclusive: 7.94 µM [inhibitor, single point] | – |
| COc1ccc(-n2nc3cc(C)c(NC(=O)c4ccc(-c5ccc(Br)cc5)o4)cc3n2)cc1 | inconclusive: 6.31 µM [inhibitor, full curve] | – |
| O=C(Nc1ccc2nsnc2c1)c1ccc2c(c1)OCO2 | inconclusive: 7.08 µM [inhibitor, partial curve] | – |
| CSCCOC(=O)C1=C(C)Nc2ccc(C)cc2S1 | inconclusive: 14.1 µM [inhibitor, partial curve] | – |
| O=C(NCCN1CCCC1)c1ccc(Cn2c(=S)[nH]c3cc4c(cc3c2=O)OCO4)cc1 | inconclusive: 31.6 µM [inhibitor, partial curve] | – |
| Cc1[nH]c2ccc(Br)cc2c1CCNC(=O)c1cc2ccccc2oc1=O | inconclusive: 4.47 µM [inhibitor, full curve] | – |
| COC(=O)CN1C(=O)C(C)(C)c2cc(S(=O)(=O)Nc3ccc(Br)cc3F)ccc21 | – | inactive: 3.35% |
| CCn1cc2nc(SCC(=O)Nc3ccc(C)cc3)n(Cc3ccc(C)cc3)c(=O)c2n1 | inconclusive: 11.2 µM [activator, partial curve, poor fit] | – |
| Cc1ccc(C(=O)c2cc3ccccc3o2)cc1[N+](=O)[O-] | inconclusive: 5.62 µM [inhibitor, partial curve] | – |
| C=CCSC1=N/C(=C\c2sccc2C)C(=O)S1 | inconclusive: 22.4 µM [inhibitor, partial curve] | – |
| S=C(NC12CC3CC(CC(C3)C1)C2)N1CCCC1 | – | inactive: 9.15% |
| Cc1cccc(N2CCN(C(=O)CCn3c(=S)[nH]c4cc5c(cc4c3=O)OCO5)CC2C)c1 (stereo unspecified) | inconclusive: 11.2 µM [inhibitor, partial curve] | – |
| OCCNc1nc(Nc2ccccc2)nc2ccccc12 | – | inactive: -8.82% |
| CCOC(=O)c1c(-c2ccc(C)o2)csc1NC(=O)CN1CCCCC1 | inconclusive: 25.1 µM [inhibitor, single point] | – |
| CC1(C)C(=O)C=C[C@@]2(C)C1C=C[C@@]1(C)C2CC[C@@]2(C)C(c3ccoc3)OC(=O)C3OC312 (stereo partly specified) | inconclusive: 35.5 µM [inhibitor, partial curve, poor fit] | – |
| COc1ccccc1CNC(=O)Cn1c(=O)nc(-c2ccccc2F)c2cc(Cl)ccc21 | inconclusive: 20 µM [inhibitor, single point] | – |
| Cc1nn2cc(-c3ccc(Cl)cc3)cnc2c1Br | inconclusive: 1.78 µM [inhibitor, full curve] | – |
| C#CCSc1nncn1C(=O)/C=C/c1ccccc1 | inconclusive: 25.1 µM [inhibitor, single point] | – |
| N#CCc1c(C#N)c(N)nc(Nc2ccccc2)c1C#N | – | inactive: -3.44% |
